Measured values from PubChem BioAssay AID493035 (The Scripps Research Institute Molecular Screening Center, 2011).
Among all 2,000 compounds or so, about 45 (2%) were called active.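 How the source made its calls: active means inhibition above the mean of all tested compounds plus 3 SD (cut at about 49% in these data); inactive means the rest.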 The list shows a part of the results.

Molecular target: Perilipin-5 (Homo sapiens) + 1-acylglycerol-3-phosphate O-acyltransferase ABHD5 (Homo sapiens) (UniProt Q00G26+Q8WTS1)
Chain of UniProt Q00G26 (Q00G26 whole entry, looked up): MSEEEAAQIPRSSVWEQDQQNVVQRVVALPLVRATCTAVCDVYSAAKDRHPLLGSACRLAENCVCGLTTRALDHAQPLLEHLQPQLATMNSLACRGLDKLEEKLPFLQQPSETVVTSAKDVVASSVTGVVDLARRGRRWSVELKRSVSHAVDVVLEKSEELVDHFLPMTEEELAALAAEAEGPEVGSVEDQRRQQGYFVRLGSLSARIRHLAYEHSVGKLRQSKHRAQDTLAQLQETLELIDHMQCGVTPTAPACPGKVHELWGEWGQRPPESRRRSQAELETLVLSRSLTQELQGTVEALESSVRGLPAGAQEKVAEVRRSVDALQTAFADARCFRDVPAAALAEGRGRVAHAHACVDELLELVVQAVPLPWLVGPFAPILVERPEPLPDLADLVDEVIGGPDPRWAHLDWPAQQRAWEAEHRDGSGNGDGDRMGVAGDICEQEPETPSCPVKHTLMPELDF
Chain of UniProt Q00G26 (Q8WTS1 whole entry, looked up): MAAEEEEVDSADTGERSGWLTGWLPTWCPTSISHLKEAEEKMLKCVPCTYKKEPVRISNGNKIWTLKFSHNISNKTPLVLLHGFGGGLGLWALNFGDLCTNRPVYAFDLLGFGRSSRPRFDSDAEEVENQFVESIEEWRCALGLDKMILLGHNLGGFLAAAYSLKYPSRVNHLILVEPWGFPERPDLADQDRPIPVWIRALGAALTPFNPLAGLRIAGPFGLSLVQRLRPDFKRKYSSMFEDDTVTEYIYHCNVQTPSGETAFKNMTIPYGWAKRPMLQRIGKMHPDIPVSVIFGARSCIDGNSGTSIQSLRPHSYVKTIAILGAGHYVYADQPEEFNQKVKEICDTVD
Assay: blockers of ABHD5 binding to perilipin-5 – cell lysate, split luciferase complementation, luminescence, NIH validation set, pilot screen (AID 493035);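 further: 0% = DMSO only wells while the 100% control is not stated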
Conditions: split G. princeps luciferase complementation, lysates, 4 h; at 7.9 µM, active compounds read high

inhibition, inactive:
COc1cc2ccc(=O)oc2c(O)c1OCC=C(C)C -9.96%
COc1ccccc1C(=O)N=C1NC(=O)CC2C(=O)NCCN12 (configuration not stated) -12.7%
COc1cc(C(=S)N(C)C)ccc1O 10.5%
CCn1c(N2CCN(CC(=O)c3c(C)n(C)c4ccc(OC)cc34)CC2)nc2c1c(=O)[nH]c(=O)n2C 8.43%
COc1ccc(C(=O)OCc2cc3cccc(C)c3[nH]c2=O)cc1 8.03%
COCc1cc(=O)[nH]c(/N=C(\N)Nc2ccc(Oc3ccccc3)cc2)n1 -7.26%
N/C(=N\OC(=O)CCCOc1ccc(Cl)cc1Cl)c1ccncc1 14.3%
CCOc1cc2c3c(c1)C(C)=CC(C)(C)N3C(=O)C2=O 45.4%
CC1(C)CC(=O)C(C2=NC(C)(C)Cc3ccccc32)=C(O)C1 -2.8%
O=C1CCCCCN1Cc1ccccc1 9.82%
C#CCOc1ccc2c(C)cc(=O)oc2c1 3.78%
Cc1ccc2c(c1)OC(=O)CC2c1ccccc1 (configuration not stated) -5.6%
CS(=O)(=O)NCc1ccc(C(=O)NCc2ccccc2)cc1 -6.72%
C/C(=N/N1CCN(Cc2cccc3ccccc23)CC1)c1cccnc1 -8.01%
Cc1cccc(Nc2ncccc2C(=O)O)c1C -0.22%
Cc1ccc(OCCSc2ncccn2)c(C)c1 -4.83%
O=C(Cc1ccccc1[N+](=O)[O-])NCc1ccncc1 -4.03%
Cc1cc(OCC(=O)C(C)(C)C)c2c(C)c(C)c(=O)oc2c1 -3.13%
CCOC(=O)c1c(O)c2c([nH]c1=O)CCCC2 -6.36%
O=C(N/C(=C/C=C\c1ccccc1)C(=O)N1CCOCC1)c1ccc(Br)cc1 -0.71%
CC(CN1c2ccccc2Sc2ccccc21)N(C)C (configuration not stated) -12.2%
COc1ccc(NC(=O)N2CCCCC2c2cccnc2)cc1 (configuration not stated) -6.11%
NS(=O)(=O)c1cc2c(cc1C(F)(F)F)NC(Cc1ccccc1)NS2(=O)=O (configuration not stated) 1.6%
COc1ccc([C@H]2[C@H](C(=O)OC(C)(C)C)N3N=Cc4ccccc4C3C23C(=O)c2ccccc2C3=O)cc1OC (some centres not stated) 0.07%
CCOC(=O)C1=C(C)NC(C)=C(C(=O)OC)C1c1cccc([N+](=O)[O-])c1 (configuration not stated) 3.99%
CC(=Nc1ccccc1)C1=C(O)CCCC1=O 0.34%
O=c1c(C(c2ccccc2)c2c(O)sc3ccccc3c2=O)c(O)sc2ccccc12 1.05%
